# Assay results: PubChem BioAssay (Tox21)
# The shares of active, inactive and inconclusive entries below differ from those in the screen. For some assays here: Potencies beside an inconclusive call are fits to weak or partial responses and may not hold up. Calls of active or inactive are those of the source. Unless noted, the call rests on the fitted dose curve; in most records, active means well fitted curve in the direction sought with a large enough effect in the repeat runs; inconclusive means weak or mixed curves; inactive means no such curve, though single readings can be large; an effect the other way counts as inactive or inconclusive.
# How the values were obtained:
# [1] = qHTS assay for small molecule agonists of the p53 signaling pathway (AID 651631; calls by dose curve; further: nearly all actives have a fitted effect of over 15% in size; further: potency means the concentration at half of the fitted maximal effect); details: HCT-116 p53RE-bla reporter, beta-lactamase FRET ratio, 16 h; activation: at 73.3 µM (top of the series) unless noted
# In short: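 Beta-lactamase reporter activity under p53 response elements was quantified in HCT-116 cells by FRET fluorescence, following 16 h incubation with test compounds at 37 °C and 2 h substrate development at room temperature.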
# [2] = qHTS assay for identifying genotoxic compounds that show differential cytotoxicity against isogenic chicken DT40 cell lines with known DNA damage response pathways - wild type cell line (AID 743012); details: DT40 wild type chicken cells viability, CellTiter-Glo, 40 h; activity change, negative = cytotoxicity: at 68.4 µM (top of the series) unless noted; further: nearly all actives have a fitted effect of over 60% in size; further: potency means the concentration at half of the fitted maximal effect; on activity change, negative = cytotoxicity: on the % scale 0 is the no-effect control and ±100 the full control effect
# In short: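 Wild type DT40, 300 cells/well, ~0.5 h settle at 37 C/5% CO2; compounds in DMSO added by pintool; 40 h at 37 C/5% CO2; CellTiter-Glo, 30 min RT; luminescence.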
# [3] = qHTS assay for identifying genotoxic compounds that show differential cytotoxicity against isogenic chicken DT40 cell lines with known DNA damage response pathways - Rev3 mutant cell line (AID 743014); details: chicken DT40 Rev3-/- viability, CellTiter-Glo, 40 h; activity, negative = cytotoxicity: at 68.4 µM (top of the series); further: nearly all actives have a fitted effect of over 55% in size; further: potency means the concentration at half of the fitted maximal effect
# [4] = qHTS assay for identifying genotoxic compounds that show differential cytotoxicity against isogenic chicken DT40 cell lines with known DNA damage response pathways - Rad54/Ku70 mutant cell line (AID 743015); details: DT40 Rad54/Ku70 mutant viability, CellTiter-Glo, 40 h; activity change, negative = cytotoxicity: at 66.8 µM (top of the series); further: nearly all actives have a fitted effect of over 60% in size; further: potency means the concentration at half of the fitted maximal effect
# [5] = qHTS assay to identify small molecule antagonists of the androgen receptor (AR) signaling pathway - cell viability counter screen (AID 743033; further: potency means the concentration at half of the fitted maximal effect; nearly all actives have a fitted effect of over 45% in size)
# [6] = qHTS assay to identify small molecule phospholipidosis (PLD) inducers (AID 1259344; active means well fitted curve in the direction sought with a large enough effect; inconclusive means small, poorly fitted or top-dose-only effect, or another doubt; inactive means no such curve, though single readings can be large; an effect the other way counts as inactive or inconclusive; further: potency means the concentration at half of the fitted maximal effect)
# In short: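 Quantitative HTS in HepG2: compound plus LipidTOX Red dye for 24 h, paraformaldehyde fixation with Hoechst 33342, widefield high-content imaging; amiodarone as positive and DMSO as negative control.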
# [7] = qHTS assay for small molecule disruptors of the mitochondrial membrane potential (AID 720635); details: HepG2 mitochondrial membrane potential, Mito-MPS dye ratio; ratio activity, negative = MMP loss: at 83.2 µM (top of the series) unless noted; further: potency means the concentration at half of the fitted maximal effect; on ratio activity, negative = MMP loss: on the % scale 0 is the no-effect control and ±100 the full control effect
# In short: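 HepG2 cells exposed to compound 1 hr at 37C, then Mito-MPS dye 30 min. Ratio read of aggregate (540/590 nm) versus monomer (490/535 nm) fluorescence.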
# [8] = qHTS assay to identify small molecule antagonists of the thyroid receptor (TR) signaling pathway - cell viability counter screen (AID 743064); details: GH3.TRE-Luc viability, CellTiter-Fluor, 24 h; activity change, negative = cytotoxic: at 70.3 µM (top of the series) unless noted; further: nearly all actives have a fitted effect of over 50% in size; further: potency means the concentration at half of the fitted maximal effect; on activity change, negative = cytotoxic: on the % scale 0 is the no-effect control and ±100 the full control effect
# In short: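 CellTiter-Fluor readout, 30 min at 37 °C/5% CO2, following 23.5 h incubation of GH3.TRE-Luc cells with test compound and 1 nM T3 (final).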
# [9] = target: Peroxisome proliferator-activated receptor gamma (Homo sapiens) (UniProt P37231); experiment: qHTS assay to identify small molecule agonists of the peroxisome proliferator-activated receptor gamma (PPARg) signaling pathway (AID 743094; active means well fitted activation curve with a large enough effect in the signal ratio in the repeat runs, not every such curve was filed as active; inconclusive means weak or mixed curves, or effect the other way; inactive means no such curve, though single readings can be large or run the other way; the % refers to the signal ratio; further: on the % scale 0 is the no-effect control and ±100 the full control effect); details: HEK293H PPARg-UAS-bla, beta-lactamase FRET ratio, 17 h; activation: at 57 µM (top of the series) unless noted
# In short: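 Beta-lactamase FRET fluorescence was the read-out after a 1 h room-temperature substrate step, following 17 h compound treatment at 37C of HEK293H cells expressing a UAS-driven bla reporter responsive to PPARg.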
# [10] = qHTS assay for small molecule agonists of the antioxidant response element (ARE) signaling pathway (AID 743202; active means well fitted activation curve with a large enough effect in the signal ratio in the repeat runs, not every such curve was filed as active; inconclusive means weak or mixed curves, or effect the other way; inactive means no such curve, though single readings can be large or run the other way; the % refers to the signal ratio; further: potency means the concentration at half of the fitted maximal effect); details: HepG2 ARE-bla reporter, beta-lactamase FRET, 16 h; activation: at 73.3 µM (top of the series) unless noted
# In short: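 Agonist mode reporter screen: HepG2 cells with ARE-controlled beta-lactamase are incubated with test compounds for 16 h at 37 C, and beta-lactamase activity is measured as fluorescence of cleaved B/G FRET substrate.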
# [11] = target: Cytochrome P450 2D6 (Homo sapiens) (UniProt P10635); experiment: Cytochrome P450 Family 2 Subfamily D Member 6 (CYP2D6) small molecule antagonists: luciferase reporter qHTS assay (AID 1671196); further: potency means the concentration at half of the fitted maximal effect; nearly all actives have a fitted effect of over 50% in size
# In short: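 Read-out is luminescence from luciferin formed by CYP2D6 turnover of a proluciferin substrate, recorded as relative luminescence units. Reactions ran 1 h at room temperature after NADPH regeneration solution was added.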
# [12] = target: Cytochrome P450 1A2 (Homo sapiens) (UniProt P05177); experiment: Cytochrome P450 Family 1 Subfamily A Member 2 (CYP1A2) small molecule antagonists: luciferase reporter qHTS assay (AID 1671199); further: potency means the concentration at half of the fitted maximal effect; nearly all actives have a fitted effect of over 50% in size
# In short: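 P450-Glo CYP1A2, 1536-well qHTS: enzyme/proluciferin substrate + cpd (DMSO), 10 min RT; NADPH regen, 1 h RT; detection reagent, 20 min; luminescence, RLU.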
# [13] = target: Glucocorticoid receptor (Homo sapiens) (UniProt P04150); experiment: qHTS assay to identify small molecule antagonists of the glucocorticoid receptor (GR) signaling pathway (AID 720692; active means well fitted inhibition curve with a large enough effect in the signal ratio in the repeat runs, not every such curve was filed as active; inconclusive means weak or mixed curves, or effect the other way; inactive means no such curve, though single readings can be large or run the other way; the % refers to the signal ratio; further: potency means the concentration at half of the fitted maximal effect); details: GR-bla HeLa, beta-lactamase FRET ratio, dexamethasone-stimulated, 18 h; activity change, negative = inhibition: at 58.5 µM (top of the series) unless noted
# In short: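 HeLa GR-bla cells; cmpd + dex 5 nM final, 18 h 37 C; LiveBLAzer B/G FRET substrate 2 h RT; fluorescence intensity read. Antagonist mode, qHTS.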
# [14] = target: Estrogen receptor (Homo sapiens) (UniProt P03372); experiment: qHTS assay to identify small molecule agonists of the estrogen receptor alpha (ER-alpha) signaling pathway using the BG1 cell line (AID 743079); details: BG1Luc4E2 cells, ERE-luciferase agonist, 22 h; activation: at 70.3 µM (top of the series) unless noted; further: nearly all actives have a fitted effect of over 20% in size; further: potency means the concentration at half of the fitted maximal effect
# [15] = qHTS assay to identify small molecule antagonists of the estrogen receptor alpha (ER-alpha) signaling pathway - cell viability counter screen (AID 743074; calls by dose curve;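 further: HEK293 cells carrying ER-alpha-UAS-bla reporter stimulated with 17beta-estradiol; nearly all actives have a fitted effect of over 45% in size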; further: potency means the concentration at half of the fitted maximal effect)
# [16] = target: Peroxisome proliferator-activated receptor gamma (Homo sapiens) (UniProt P37231); experiment: qHTS assay to identify small molecule antagonists of the peroxisome proliferator-activated receptor gamma (PPARg) signaling pathway (AID 743191; calls by dose curve; further: on the % scale 0 is the no-effect control and ±100 the full control effect; nearly all actives have a fitted effect of over 30% in size); details: HEK293H PPARg-UAS-bla, beta-lactamase ratio, antagonist, 17 h; ratio activity, negative = inhibition: at 62.6 µM (top of the series) unless noted
# In short: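 GeneBLAzer PPARg UAS-bla HEK293H cells, 5 h post-plating, exposed to compounds 17 h at 37C. LiveBLAzer B/G FRET substrate added for 1 h at room temperature; beta-lactamase reporter read by fluorescence intensity.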
# [17] = qHTS assay to identify small molecule antagonists of the peroxisome proliferator-activated receptor delta (PPARd) signaling pathway - cell viability counter screen (AID 743213); details: PPARd-bla HEK293H viability, CellTiter-Glo luminescence, 17 h; viability change, negative = cytotoxic: at 62 µM (top of the series) unless noted; further: potency means the concentration at half of the fitted maximal effect; nearly all actives have a fitted effect of over 50% in size
# In short: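 In this counter screen, HEK293H cells carrying a UAS-beta-lactamase reporter are co-treated with test compounds and 300 nM L165041 (final) for 17 h at 37 C; cell viability is quantified by CellTiter-Glo luminescence.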
# [18] = qHTS assay to identify small molecule antagonists of the estrogen receptor alpha (ER-alpha) signaling pathway using the BG1 cell line - cell viability counter screen (AID 743081); details: BG1Luc4E2 viability, CellTiter-Fluor, 22 h; activity change, negative = cytotoxicity: at 70.3 µM (top of the series);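 further: compound given together with 17beta-estradiol as the ER stimulus; nearly all actives have a fitted effect of over 45% in size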; further: potency means the concentration at half of the fitted maximal effect
# [19] = target: Cytochrome P450 2C19 (Homo sapiens) (UniProt P33261); experiment: Cytochrome P450 Family 2 Subfamily C Member 19 (CYP2C19) small molecule antagonists: luciferase reporter qHTS assay (AID 1671197); further: potency means the concentration at half of the fitted maximal effect; nearly all actives have a fitted effect of over 65% in size
# In short: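 First, compounds are pinned into enzyme-substrate mix and held 10 min at room temperature. Second, NADPH regeneration solution is added and plates incubate 1 h at 37C. Third, detection reagent is added and luminescence read after 20 min.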
# [20] = target: Cytochrome P450 2C9 (Homo sapiens) (UniProt P11712); experiment: Cytochrome P450 Family 2 Subfamily C Member 9 (CYP2C9) small molecule antagonists: luciferase reporter qHTS assay (AID 1671198); further: nearly all actives have a fitted effect of over 50% in size; further: potency means the concentration at half of the fitted maximal effect
# In short: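 P450-Glo proluciferin substrate with CYP2C9 enzyme; 10 min RT preincubation, then NADPH regeneration 1 h at 37C; luciferin detection reagent 20 min RT, luminescence in relative luminescence units.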
# Tags describe the fitted curve by direction and shape or compound fluorescence and quenching.
# Sequence of UniProt P37231 (P37231 whole entry, looked up): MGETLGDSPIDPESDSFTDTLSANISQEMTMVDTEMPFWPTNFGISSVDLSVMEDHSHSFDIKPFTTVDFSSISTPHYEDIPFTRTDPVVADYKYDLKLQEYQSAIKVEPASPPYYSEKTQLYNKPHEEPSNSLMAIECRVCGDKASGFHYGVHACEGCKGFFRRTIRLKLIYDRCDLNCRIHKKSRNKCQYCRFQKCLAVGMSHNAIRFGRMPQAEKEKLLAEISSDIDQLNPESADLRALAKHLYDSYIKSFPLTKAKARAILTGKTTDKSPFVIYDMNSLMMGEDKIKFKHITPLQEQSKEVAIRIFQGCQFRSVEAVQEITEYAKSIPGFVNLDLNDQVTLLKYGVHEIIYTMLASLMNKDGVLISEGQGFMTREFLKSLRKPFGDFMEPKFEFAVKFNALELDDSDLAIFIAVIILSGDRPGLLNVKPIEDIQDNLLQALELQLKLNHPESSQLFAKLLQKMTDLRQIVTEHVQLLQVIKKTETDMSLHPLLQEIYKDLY
# Sequence of UniProt P03372 (P03372 whole entry, looked up): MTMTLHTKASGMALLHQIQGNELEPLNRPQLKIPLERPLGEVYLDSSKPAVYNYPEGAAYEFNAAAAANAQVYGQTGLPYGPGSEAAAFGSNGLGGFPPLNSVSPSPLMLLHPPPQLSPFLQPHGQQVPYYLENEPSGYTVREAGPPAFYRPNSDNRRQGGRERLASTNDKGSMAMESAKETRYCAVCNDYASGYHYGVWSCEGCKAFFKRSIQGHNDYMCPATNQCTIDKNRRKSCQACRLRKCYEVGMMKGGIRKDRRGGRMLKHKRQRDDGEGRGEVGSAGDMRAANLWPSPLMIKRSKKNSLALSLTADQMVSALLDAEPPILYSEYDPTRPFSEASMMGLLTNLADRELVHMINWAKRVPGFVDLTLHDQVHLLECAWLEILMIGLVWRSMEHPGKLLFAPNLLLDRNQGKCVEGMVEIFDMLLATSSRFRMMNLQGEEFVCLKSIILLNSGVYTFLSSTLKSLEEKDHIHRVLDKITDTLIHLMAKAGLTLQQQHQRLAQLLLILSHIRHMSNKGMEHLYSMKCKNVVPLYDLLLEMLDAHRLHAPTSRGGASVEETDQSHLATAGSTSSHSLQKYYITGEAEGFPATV
# Sequence of UniProt P10635 (P10635 whole entry, looked up): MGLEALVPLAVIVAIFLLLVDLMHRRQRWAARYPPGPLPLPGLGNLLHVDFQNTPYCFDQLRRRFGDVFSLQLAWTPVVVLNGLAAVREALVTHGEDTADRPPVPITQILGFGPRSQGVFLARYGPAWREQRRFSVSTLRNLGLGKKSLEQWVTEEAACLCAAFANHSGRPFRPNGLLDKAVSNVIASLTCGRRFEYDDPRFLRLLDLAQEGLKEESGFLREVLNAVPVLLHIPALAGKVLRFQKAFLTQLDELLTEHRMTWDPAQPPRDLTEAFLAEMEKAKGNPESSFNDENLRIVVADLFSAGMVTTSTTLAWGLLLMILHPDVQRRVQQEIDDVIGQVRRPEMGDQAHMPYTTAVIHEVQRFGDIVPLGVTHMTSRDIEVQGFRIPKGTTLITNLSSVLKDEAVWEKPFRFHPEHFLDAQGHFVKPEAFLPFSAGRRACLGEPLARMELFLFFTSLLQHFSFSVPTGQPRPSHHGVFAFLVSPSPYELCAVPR
# Sequence of UniProt P05177 (P05177 whole entry, looked up): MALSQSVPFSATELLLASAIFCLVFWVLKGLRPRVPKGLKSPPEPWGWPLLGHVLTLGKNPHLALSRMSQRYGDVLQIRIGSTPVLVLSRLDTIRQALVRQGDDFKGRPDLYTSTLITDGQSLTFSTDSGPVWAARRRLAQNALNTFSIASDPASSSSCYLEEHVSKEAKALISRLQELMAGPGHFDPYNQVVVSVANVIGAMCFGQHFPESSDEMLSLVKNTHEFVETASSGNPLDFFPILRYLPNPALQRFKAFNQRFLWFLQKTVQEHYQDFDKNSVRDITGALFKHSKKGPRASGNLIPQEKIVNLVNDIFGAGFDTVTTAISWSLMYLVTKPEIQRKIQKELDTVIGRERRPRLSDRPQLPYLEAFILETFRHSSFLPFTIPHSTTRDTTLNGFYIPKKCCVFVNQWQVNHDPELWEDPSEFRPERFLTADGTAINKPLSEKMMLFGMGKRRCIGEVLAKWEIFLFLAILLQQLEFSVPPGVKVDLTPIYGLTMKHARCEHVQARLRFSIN
# Sequence of UniProt P11712 (P11712 whole entry, looked up): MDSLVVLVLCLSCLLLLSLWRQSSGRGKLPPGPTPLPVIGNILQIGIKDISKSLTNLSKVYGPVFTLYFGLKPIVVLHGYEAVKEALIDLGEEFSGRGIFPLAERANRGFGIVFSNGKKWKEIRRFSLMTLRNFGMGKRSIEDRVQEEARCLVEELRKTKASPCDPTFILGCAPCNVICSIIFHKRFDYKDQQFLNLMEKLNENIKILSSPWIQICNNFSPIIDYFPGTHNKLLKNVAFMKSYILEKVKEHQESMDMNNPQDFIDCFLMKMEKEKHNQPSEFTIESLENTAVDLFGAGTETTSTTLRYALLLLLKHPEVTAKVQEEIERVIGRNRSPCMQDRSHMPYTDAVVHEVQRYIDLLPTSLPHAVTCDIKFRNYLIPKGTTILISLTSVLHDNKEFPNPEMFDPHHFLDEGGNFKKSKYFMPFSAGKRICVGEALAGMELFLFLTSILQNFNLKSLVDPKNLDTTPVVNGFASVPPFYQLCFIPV
# Sequence of UniProt P04150 (P04150 whole entry, looked up): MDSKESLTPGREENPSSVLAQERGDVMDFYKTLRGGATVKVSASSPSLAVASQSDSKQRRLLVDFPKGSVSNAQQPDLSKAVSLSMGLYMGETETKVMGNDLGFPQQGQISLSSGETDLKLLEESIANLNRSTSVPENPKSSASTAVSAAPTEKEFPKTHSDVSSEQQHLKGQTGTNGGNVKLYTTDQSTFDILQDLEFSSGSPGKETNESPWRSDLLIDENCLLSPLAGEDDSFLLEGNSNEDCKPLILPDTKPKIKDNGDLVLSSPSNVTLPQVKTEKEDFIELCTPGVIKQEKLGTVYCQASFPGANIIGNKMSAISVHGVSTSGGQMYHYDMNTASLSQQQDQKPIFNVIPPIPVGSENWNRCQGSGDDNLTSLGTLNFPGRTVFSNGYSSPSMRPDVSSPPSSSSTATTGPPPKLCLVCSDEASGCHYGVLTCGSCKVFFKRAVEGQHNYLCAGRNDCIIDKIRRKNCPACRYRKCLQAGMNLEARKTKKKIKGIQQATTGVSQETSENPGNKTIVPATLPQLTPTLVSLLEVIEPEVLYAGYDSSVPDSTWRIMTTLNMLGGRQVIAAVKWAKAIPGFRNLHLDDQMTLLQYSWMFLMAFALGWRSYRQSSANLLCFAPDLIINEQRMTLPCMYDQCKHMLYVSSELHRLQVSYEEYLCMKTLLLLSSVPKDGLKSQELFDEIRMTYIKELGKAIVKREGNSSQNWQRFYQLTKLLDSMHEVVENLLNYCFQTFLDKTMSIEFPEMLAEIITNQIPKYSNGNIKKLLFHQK
# Sequence of UniProt P33261 (P33261 whole entry, looked up): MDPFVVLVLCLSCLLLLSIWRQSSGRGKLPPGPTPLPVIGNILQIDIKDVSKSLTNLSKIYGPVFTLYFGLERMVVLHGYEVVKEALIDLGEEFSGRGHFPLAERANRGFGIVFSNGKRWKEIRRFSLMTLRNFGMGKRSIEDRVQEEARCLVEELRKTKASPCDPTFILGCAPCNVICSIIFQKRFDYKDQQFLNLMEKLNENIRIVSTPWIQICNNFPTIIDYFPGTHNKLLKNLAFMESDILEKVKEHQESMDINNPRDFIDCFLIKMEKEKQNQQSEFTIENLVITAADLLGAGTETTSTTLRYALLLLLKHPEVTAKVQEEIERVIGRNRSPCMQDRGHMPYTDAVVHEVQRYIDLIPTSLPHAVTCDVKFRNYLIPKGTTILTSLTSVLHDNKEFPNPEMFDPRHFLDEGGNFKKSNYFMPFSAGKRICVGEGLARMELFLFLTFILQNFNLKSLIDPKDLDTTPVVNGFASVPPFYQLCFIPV
structure (smiles),measurement,setting,value
C=C[C@H]1CN2CC[C@H]1C[C@@H]2[C@@H](O)c1ccnc2ccccc12,Potency,[1],"inconclusive: 13.3 µM [cytotoxic, single point]"
same,Potency,[2],"inconclusive: 33.5 µM [cytotoxic, single point]"
same,Potency,[3],"inconclusive: 33.5 µM [cytotoxic, partial curve, poor fit]"
same,Potency,[4],"inconclusive: 33.5 µM [cytotoxic, single point]"
same,Potency,[5],"inconclusive: 26.8 µM [rising, single point]"
same,Potency,[6],inactive
ClCC(Cl)Cl,Potency,[7],inactive
same,"activity change, negative = cytotoxicity",[2],inconclusive: 34.8% [at 95 µM]
same,Potency,[8],inactive
same,Potency,[9],inactive
same,Potency,[10],"inconclusive: 70.8 µM [rising, single point]"
same,Potency,[11],inconclusive: 65.4 µM [inhibitor]
same,Potency,[12],"inconclusive: 65.4 µM [inhibitor, partial curve]"
C[C@]12CC[C@H]3[C@@H](CCC4=CC(=O)CC[C@@]43C)[C@@H]1CC[C@@H]2OC(=O)CCc1ccccc1,Potency,[1],"inconclusive: 68.6 µM [falling, partial curve, poor fit]"
same,Potency,[13],active: 6.16 µM
same,Potency,[3],active: 8.63 µM
same,Potency,[14],active: 0.0306 µM
same,Potency,[6],"inconclusive: 8.91 µM [activator, single point]"
NC(=O)CF,Potency,[2],inactive
same,Potency,[15],inactive
same,Potency,[14],inactive
same,Potency,[11],"inconclusive: 56.4 µM [inhibitor, partial curve]"
ClCc1ccccc1Cl,"ratio activity, negative = MMP loss",[7],inconclusive: -13.5% [at 95.3 µM]
same,Potency,[2],inactive
same,Potency,[16],inactive
same,activation,[10],inconclusive: 14.6% [at 94.8 µM]
same,Potency,[17],"inconclusive: 0.498 µM [cytotoxic, single point]"
same,Potency,[12],"inconclusive: 72.2 µM [inhibitor, partial curve, poor fit]"
COC1=CC=C2[C@H]3Cc4ccc(OC)c5c4[C@@]2(CCN3C)[C@H]1O5,Potency,[1],inactive
same,Potency,[2],inconclusive: 68.3 µM [cytotoxic]
same,Potency,[3],"inconclusive: 68.3 µM [cytotoxic, single point]"
same,Potency,[4],"inconclusive: 68.3 µM [cytotoxic, single point]"
same,Potency,[8],"inconclusive: 54.3 µM [cytotoxic, partial curve, poor fit]"
same,Potency,[18],"inconclusive: 60.9 µM [cytotoxic, single point]"
same,activation,[9],inconclusive: -10.5% [at 26.2 µM]
same,Potency,[6],"inconclusive: 50.1 µM [activator, single point]"
CC(C)OC(=O)Cc1ccccc1,Potency,[7],inactive
same,Potency,[8],inactive
same,Potency,[14],inactive
same,"ratio activity, negative = inhibition",[16],inconclusive: 3.02% [at 81.1 µM]
same,Potency,[10],inactive
same,Potency,[11],"inconclusive: 63.8 µM [inhibitor, partial curve]"
same,Potency,[19],"inconclusive: 56.9 µM [inhibitor, partial curve, poor fit]"
same,Potency,[20],inactive
CCC1(c2ccccc2)C(=O)NC(=O)N(C)C1=O (stereo not drawn),"ratio activity, negative = MMP loss",[7],inconclusive: 11.4%
same,Potency,[3],inactive
same,Potency,[4],inactive
same,Potency,[15],"inconclusive: 3.79 µM [rising, partial curve, poor fit]"
same,Potency,[18],inactive
CCC(=O)O[C@H]1[C@@H](N2CCCCC2)C[C@H]2[C@@H]3CC[C@H]4C[C@H](OC(C)=O)[C@@H](N5CCCCC5)C[C@]4(C)[C@H]3CC[C@@]21C,Potency,[7],inactive
same,Potency,[2],active: 2.37 µM
same,Potency,[18],"inconclusive: 13.3 µM [cytotoxic, single point]"
same,Potency,[6],"inconclusive: 15.8 µM [activator, partial curve, poor fit]"
CC(=O)OCC1=C(C(=O)O)N2C(=O)[C@@H](N)[C@H]2SC1,Potency,[10],inactive
same,Potency,[17],"inconclusive: 0.0731 µM [cytotoxic, full curve, poor fit]"
same,Potency,[11],"inconclusive: 12 µM [inhibitor, partial curve]"
same,Potency,[20],"inconclusive: 10.7 µM [inhibitor, full curve, poor fit]"
CCN(CC)/[N+]([O-])=N/O,Potency,[7],"inconclusive: 33.5 µM [inhibitor, single point]"
same,Potency,[5],"inconclusive: 15.1 µM [cytotoxic, partial curve, poor fit]"
same,Potency,[6],inactive
CC[C@@H](O)C(C[C@@H](C)N(C)C)(c1ccccc1)c1ccccc1,Potency,[7],inconclusive: 19.5 µM [activator]
same,Potency,[2],active: 55.1 µM
same,Potency,[3],"inconclusive: 77.8 µM [cytotoxic, single point]"
same,Potency,[4],"inconclusive: 77.8 µM [cytotoxic, single point]"
same,Potency,[15],"inconclusive: 4.41 µM [cytotoxic, partial curve, poor fit]"
same,Potency,[14],"inconclusive: 0.618 µM [activator, partial curve, poor fit]"
same,activation,[9],inconclusive: -13% [at 78.9 µM]
same,Potency,[6],"inconclusive: 56.2 µM [activator, single point]"
